Data taken from the supplement of paper PMC3334620.
Over roughly 33,000 sequences, “E-score (-0.5 to 0.5)” has its median near -0.021; the highest 2% begin near 0.32. This is one part of the list.

Target: T1, Zap1 (UniProt P47043)
T1 sequence: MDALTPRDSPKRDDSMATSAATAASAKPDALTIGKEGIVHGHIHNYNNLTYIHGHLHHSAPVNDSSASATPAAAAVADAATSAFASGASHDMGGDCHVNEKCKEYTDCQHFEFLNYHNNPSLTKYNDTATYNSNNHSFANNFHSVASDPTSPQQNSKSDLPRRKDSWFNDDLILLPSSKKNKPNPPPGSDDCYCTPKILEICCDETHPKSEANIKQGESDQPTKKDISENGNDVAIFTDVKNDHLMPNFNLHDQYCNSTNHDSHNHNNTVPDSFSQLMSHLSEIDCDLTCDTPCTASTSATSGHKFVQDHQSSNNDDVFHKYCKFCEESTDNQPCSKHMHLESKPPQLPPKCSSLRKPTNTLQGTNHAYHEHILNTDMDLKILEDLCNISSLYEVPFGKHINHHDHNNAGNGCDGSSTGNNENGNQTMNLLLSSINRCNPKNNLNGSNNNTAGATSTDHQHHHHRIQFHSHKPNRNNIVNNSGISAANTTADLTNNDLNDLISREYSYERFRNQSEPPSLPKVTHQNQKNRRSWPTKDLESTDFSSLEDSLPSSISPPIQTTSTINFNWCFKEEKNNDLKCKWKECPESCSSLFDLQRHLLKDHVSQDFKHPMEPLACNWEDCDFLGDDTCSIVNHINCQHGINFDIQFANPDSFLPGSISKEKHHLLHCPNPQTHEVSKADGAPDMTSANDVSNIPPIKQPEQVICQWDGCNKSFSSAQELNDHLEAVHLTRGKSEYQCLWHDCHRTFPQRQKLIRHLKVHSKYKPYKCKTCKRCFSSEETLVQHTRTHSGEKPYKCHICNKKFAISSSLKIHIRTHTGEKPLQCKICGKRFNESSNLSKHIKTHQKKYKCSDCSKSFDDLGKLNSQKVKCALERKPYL
Experiment: PBM E-score (8-mer binding enrichment) (E-score (-0.5 to 0.5)); higher = stronger / more preferred TF binding; most listed sequences are background and not binding sites
Details: protein concentration: 200 nM; construct: GST-full length
In short: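 Using PURExpress in vitro transcription/translation, GST-tagged yeast transcription factors were made in full-length or DNA-binding-domain form. These were applied at about 100-200 nM to double-stranded universal all-10-mer Agilent arrays, and bound protein was detected with fluorescent anti-GST. Scans were normalised with masliner before the Universal PBM Analysis Suite assigned E-scores to ungapped eight-base words pooled with their reverse complements.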

| Sequence | PBM E-score |
| --- | --- |
| GCTAGCAC | -0.176 |
| AGATAGCC | -0.152 |
| CGCAGACC | -0.147 |
| ATCTTCTG | -0.125 |
| CCCGACGC | -0.0442 |
| AGTAACGG | 0.126 |
| GGGATCAC | -0.099 |
| CGGCCCTC | -0.24 |
| AGGAGTAT | -0.207 |
| CCGATAGC | -0.225 |
| GATGTGCC | -0.157 |
| GGGATAGA | -0.159 |
| GACCTGGC | -0.0867 |
| AACATGGA | 0.061 |
| AAGAAGAC | 0.00534 |
| AACCCACA | 0.331 |
| CCCGATCA | -0.221 |
| CAGAATTC | 0.12 |
| CACAGTGG | -0.0435 |
| GGACCGAC | -0.00091 |
| CAATCGAC | -0.0378 |
| ACGAGAGT | -0.197 |

| Sequence | PBM E-score |
| --- | --- |
| GTTATTTA | 0.325 |
| AAAGCTGA | -0.0433 |
| AGCTTAGC | -0.117 |
| AGGTTTCC | 0.135 |
| CTCCTCCA | -0.196 |
| AGAGGAAC | -0.208 |
| ATGAATAG | 0.0537 |
| AGCGTTAG | -0.147 |
| GTGAAAAA | 0.175 |
| CCCTTAGG | 0.29 |
| ATGAACAG | -0.00688 |
| CAGGCGTC | -0.226 |
| ACTGACAG | 0.0286 |
| AGGCTGAC | -0.242 |
| CCATAATC | 0.17 |
| AAGCTAGC | -0.215 |
| ATGCCGTG | -0.224 |
| CAGAGAAG | -0.0979 |
| GGAATAGA | 0.0152 |
| GAAGTTGA | -0.117 |
| AAGGGTAT | 0.421 |
| CGACCGAA | 0.0132 |

| Sequence | PBM E-score |
| --- | --- |
| AGATCTAA | -0.0944 |
| AGAGTGCG | 0.0289 |
| GCCCGTAA | 0.0448 |
| AATTCATG | 0.131 |
| CCACAAGG | 0.33 |
| GCGGATCC | -0.0744 |
| CCACTAGC | -0.0965 |
| CACCGATC | -0.0332 |
| CAATGCCC | -0.0391 |
| ACTCACAA | 0.162 |
| AGGTGAAA | 0.0415 |
| GAACGCGC | -0.00333 |
| GCGACGAC | -0.223 |
| AGAGTGGA | -0.123 |
| CCATAGAG | 0.00274 |
| GAGACCTA | 0.012 |
| GCCGTTCA | -0.0892 |
| ACCACAAT | 0.186 |
| GCCGCCGC | -0.0987 |
| ATGCCGAC | -0.0634 |
| CTACTAAC | 0.216 |
| ATGGGGAC | 0.0936 |

| Sequence | PBM E-score |
| --- | --- |
| ACCTCTCA | 0.344 |
| CATGATTA | 0.188 |
| AACGCCAC | -0.161 |
| CAAAGACG | -0.0783 |
| CTCATCGA | -0.0228 |
| AAAGCAGC | -0.0521 |
| ACTACCCG | 0.261 |
| AGACGGTG | -0.179 |
| CAGCAATG | -0.172 |
| CAAGACAG | -0.0336 |
| ACGAGTTC | 0.0137 |
| CTACCTTC | 0.237 |
| ACACAGAT | -0.146 |
| CCCAGCGA | -0.0801 |
| GGCCAACA | -0.18 |
| ATTCTCTG | -0.159 |
| GAGCTATA | -0.233 |
| CGCCTCCG | -0.295 |
| AGTTATCA | 0.186 |
| AGAACTAT | -0.104 |
| ACCCGAGC | 0.165 |
| TGTATCAA | 0.0916 |

| Sequence | PBM E-score |
| --- | --- |
| AGTGCTGG | -0.209 |
| GCCAGACA | 0.0344 |
| GGTGTCAC | 0.0261 |
| CTACTGAC | -0.0865 |
| ATACCGGG | 0.0655 |
| ACAAACTG | -0.16 |
| AGGCGAGG | -0.0846 |
| CGGGAAGA | -0.0305 |
| ATGTTATC | 0.0946 |
| AGGCAAAT | -0.127 |
| AAAAACAG | 0.0872 |
| ATGCATGC | -0.173 |
| TCGACCCA | -0.00403 |
| AACGGAAC | 0.0362 |
| GACTTGCA | -0.0829 |
| AGCAATAA | 0.0355 |
| AGATCGCT | -0.204 |
| CTCGCTAA | 0.0275 |
| ATTCAAAT | 0.037 |
| AGTTGTAT | 0.00413 |
| ATTACGGG | 0.133 |
| ATTGGCAC | -0.121 |
